Patent publication US10941114B2, “Small molecule lipid II inhibitors” (University Of Maryland, Baltimore, priority 2015, dated 2021)

System: Enterococcus faecalis EF1509
Assay: Murine model of sepsis
Conditions: ampicillin 300 mg/kg IP; for bacterial counts in spleen: after 24 hours, 6jc48-1 100 mg/kg IP
Protocol: General methods for the murine model of sepsis were as follows. […] Infected animals subsequently were treated by intravenous injection 30 minutes, 120 minutes and 300 minutes post-infection with 5 mg/kg of the compound in 100 μL of one of (1) Tris-buffered saline solution, 50% PEG400, 10% DMSO (v/v), (2) linezolid (50 mg/kg, sterile Tris-buffered saline solution, 50% PEG400, 10% DMSO (v/v) as a positive control) or (3) vehicle (Tris-buffered saline solution, 50% PEG400, 10% DMSO (v/v) as a negative control). […] Mice were anesthetized by intraperitoneal injection of ketamine (80-100 mg/kg) and xylazine (10-15 mg/kg). Blood samples were collected by retro-orbital puncture using lithium-heparin polystyrene tubes to prevent coagulation. Spleens were harvested aseptically, weighed and homogenized in 500 μL sterile saline solution using an IKA™ basic disperser (IKA™, Wilmington N.C.). Whole blood samples and spleen homogenates were serially diluted and plated onto lysogeny broth (LB) agar plates. Bacterial counts were determined following a 24-hour incubation at 37° C. and expressed as CFU per milliliter for blood and CFU per gram for spleen.
A specific test was performed as follows. Based on the data obtained in the pharmacokinetic analysis, mice (n=5) were inoculated peritoneally with E. faecalis EF1509 and treated after 30 minutes and three times every 90 minutes following with compound at 5 mg/kg intravenously. Animals were monitored for survival. Blood and spleen samples were collected and tested for bacteria.
In a separate test, mice (n=5) were inoculated intraperitoneally with E. faecalis EF1509 (approximately 5×10^8 CFU/animal) and treated after 30 minutes with compound 6jc48-1 (100 mg/kg IP), ampicillin (300 mg/kg IP) or a vehicle control. Animals were monitored for survival. After 24 hours, spleen samples were collected and analyzed for the presence of bacteria. Bacterial counts were determined by plating serial dilutions on BHI agar plates and compared to control treatments as measures of efficacy. […]

Compound | bacterial counts in spleen | animals surviving for the duration of the experiment (E. faecalis EF1509 approx. 5×10^8 CFU/animal IP, treated after 30 minutes: 6jc48-1 100 mg/kg IP, n=5)
CN(C)c1ccc(/C=C/c2cc(-c3ccc(Br)cc3)cc(-c3ccc(Br)cc3)[o+]2)cc1 [Compound 6jc48-1, (E)-2,4-bis(4-bromophenyl)-6-(4-(dimethylamino)styryl)pyrylium boron tetrafluoride salt] | significant bacterial clearance | 
CC1(C)S[C@@H]2[C@H](NC(=O)[C@H](N)c3ccccc3)C(=O)N2[C@H]1C(=O)O [ampicillin, reference compound] | significant bacterial clearance | all animals

Counter-ions that a name gives are not always drawn.
